Among all 310,000 compounds or so, about 14,000 (4.5%) showed an effect of 50% or more. Effects have a minus sign here. The list shows a part of the results.
Biological target: human ether-à-go-go-related gene (hERG) potassium channel (human, UniProt Q12809)
Assay: primary screen, population patch clamp on CHO cells stably expressing hERG
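Further: peak tail current of the secondary pulse compared with the same well before compound.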

Chain of human ether-à-go-go-related gene (hERG) potassium channel (Q12809 whole entry, looked up): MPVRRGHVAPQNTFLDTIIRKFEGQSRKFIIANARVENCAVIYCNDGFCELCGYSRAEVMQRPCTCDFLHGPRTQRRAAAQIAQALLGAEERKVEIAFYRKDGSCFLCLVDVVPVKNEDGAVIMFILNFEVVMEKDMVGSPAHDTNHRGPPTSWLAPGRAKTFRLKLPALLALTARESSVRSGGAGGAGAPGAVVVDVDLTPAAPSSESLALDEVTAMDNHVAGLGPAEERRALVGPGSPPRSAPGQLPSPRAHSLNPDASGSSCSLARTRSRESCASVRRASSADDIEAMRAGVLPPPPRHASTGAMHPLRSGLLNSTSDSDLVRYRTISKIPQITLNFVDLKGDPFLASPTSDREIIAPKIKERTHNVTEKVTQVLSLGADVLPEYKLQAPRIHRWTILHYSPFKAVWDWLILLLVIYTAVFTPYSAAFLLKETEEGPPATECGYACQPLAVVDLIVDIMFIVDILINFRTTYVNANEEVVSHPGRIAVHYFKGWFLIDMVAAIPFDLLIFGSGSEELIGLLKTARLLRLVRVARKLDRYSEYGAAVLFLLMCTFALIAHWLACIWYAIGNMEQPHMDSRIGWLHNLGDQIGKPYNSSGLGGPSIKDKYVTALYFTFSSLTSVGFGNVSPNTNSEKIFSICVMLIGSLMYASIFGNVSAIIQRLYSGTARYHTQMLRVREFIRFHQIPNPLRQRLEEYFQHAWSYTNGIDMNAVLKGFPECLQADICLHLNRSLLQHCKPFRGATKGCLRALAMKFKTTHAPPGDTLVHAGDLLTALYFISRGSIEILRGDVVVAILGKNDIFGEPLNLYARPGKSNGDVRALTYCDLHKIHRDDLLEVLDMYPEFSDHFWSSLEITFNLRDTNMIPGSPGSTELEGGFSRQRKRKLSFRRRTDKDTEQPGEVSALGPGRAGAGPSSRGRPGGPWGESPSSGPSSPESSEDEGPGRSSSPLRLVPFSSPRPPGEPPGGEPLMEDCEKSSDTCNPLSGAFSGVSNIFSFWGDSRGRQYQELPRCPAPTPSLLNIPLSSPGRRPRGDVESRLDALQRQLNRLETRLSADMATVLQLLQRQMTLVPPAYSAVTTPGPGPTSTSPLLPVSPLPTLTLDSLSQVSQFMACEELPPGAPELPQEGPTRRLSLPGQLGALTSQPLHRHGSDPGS

| SMILES | hERG current change (%, negative = inhibition) at 10uM |
| --- | --- |
| O=C(c1cccnc1)C1CCCN(Cc2nc(-c3cnccn3)no2)C1 (stereo not drawn) | -6.56% |
| COC(=O)Cc1ccc(NC(=S)NN2CCOCC2)cc1 | -4.04% |
| CC1(C)CC(=O)CC(C)(C)N1OC(=O)c1ccccn1 | 0.264% |
| CCOC(=O)Cn1c(C)nc2c(C(=O)OCC)sc(C)c2c1=O | -5% |
| COc1cccc(/C=N/NC(=O)CSc2ccccc2C)c1OC | 11.2% |
| O=C(CCS(=O)(=O)c1ccc(Cl)cc1)NCCN1C(=O)S/C(=C\c2ccccc2F)C1=O | 13.9% |
| CC(C)C(=O)Nc1cccc(C(=O)Nc2ccccc2C(=O)O)c1 | 9.21% |
| O=C(NC(Cc1c[nH]c2ccccc12)C(=O)Nc1ccc(F)cc1)c1cccs1 (stereo not drawn) | -23.8% |
| Cc1c(C(N)=O)sc2ncn(CC(=O)N3CCC(C)CC3)c(=O)c12 | 0.551% |
| COc1ccc(Cl)cc1C(=O)NNC(=O)c1nc2nc(C)cc(C)n2n1 | 9.73% |
| COc1ccc(CCNC(=O)CSCc2ccc([N+](=O)[O-])cc2)cc1 | -44.8% |
| Cn1cccc1Cc1nnc(SCC(=O)Nc2ccccc2F)n1CCc1ccccc1 | -29.7% |
| O=C(Nc1ccc(Cl)c(Cl)c1)Nc1ccon1 | 23.8% |
| CCN(CC(=O)c1c(N)n(C)c(=O)n(C)c1=O)c1cccc2ccccc12 | 3.07% |
| O=C(Nc1ccc(F)cc1F)C1CCCN1S(=O)(=O)c1cccc2nsnc12 (stereo not drawn) | -15.8% |
| CC1=NN(C(=O)CCc2ccccc2)C(c2ccccc2)C1 (stereo not drawn) | -5.19% |
| CCCNC(=O)N1CCN(S(C)(=O)=O)CC1 | 4.94% |
| CCOC(=O)c1sc(=S)n(CC)c1NC(=O)c1ccccc1 | 8.71% |
| CC(C)COC(=O)Nc1ccccc1C(=O)N1CCOCC1 | 9.75% |
| COc1ccccc1OCC(=O)n1cc(C(=O)c2cc(Cl)cc(Cl)c2O)cn1 | 13.1% |
| CC(C)n1c(SCC(=O)N2CCCC2)nc2c1c(=O)n(C)c(=O)n2C | -5.03% |
| CCOc1cc(-c2nnn(CC(=O)N3CCCCC3)n2)ccc1OC | 25.5% |
| CCCS(=O)(=O)N1CCCC(C(=O)NCCN2CCCCC2C)C1 (stereo not drawn) | 7.72% |

| SMILES | hERG current change (%, negative = inhibition) at 10uM |
| --- | --- |
| COc1cc2ccccc2cc1C(=O)Nc1ccncc1 | -24.8% |
| Cc1cc(C)cc(COn2ccnc2)c1 | -14.1% |
| CCC(C)NC(=O)C(NS(=O)(=O)c1cccc2nsnc12)c1ccccc1 (stereo not drawn) | 5.97% |
| CN(C)C(=O)Nc1ccccc1 | 13.6% |
| O=C1NC(=O)/C(=C/c2ccccc2Oc2ccc(Cl)cc2)S1 | 0.787% |
| COc1cccc(CC(=O)OCC(=O)NCC(=O)Nc2cccc(C)c2C)c1 | 15.6% |
| NC(=O)c1cc(NC(=O)CCCc2nc3ccccc3s2)cc(C(N)=O)c1 | 20.3% |
| CCC(CC)c1nnc(NC(=O)C2CCN(C(=O)c3ccco3)CC2)s1 | 20.1% |
| Cc1cc(CN(C)C(=O)c2cc(COc3ccc(F)cc3Cl)on2)n[nH]1 | -2.22% |
| Nc1nc(NCc2ccco2)nc(NC2CCCCC2)c1[N+](=O)[O-] | 8.97% |
| Cc1ccsc1C(=O)N/N=C/c1ccc([N+](=O)[O-])cc1 | 11.2% |
| COc1ccc(C(C)=O)cc1CSc1ccc(S(=O)(=O)N2CCOCC2)cn1 | -24.8% |
| CCc1ccc(NC(=O)CSc2ccc(-c3sc(C)nc3C)nn2)cc1 | 7.98% |
| O=C(c1ccc(-c2ccccc2)cc1)C1CCCN(C(=O)c2ccncc2)C1 (stereo not drawn) | -13.4% |
| Cc1ccc(C)c(NC(=O)Cc2coc3cc4c(cc23)CCC4)c1 | 14.4% |
| CCCOC(=O)c1ccc(NC(=O)c2cc(=O)[nH]c3ccccc23)cc1 | -6.74% |
| CCOc1ccc(OC(=O)NC(c2ccccc2)C(Cl)(Cl)Cl)cc1 (stereo not drawn) | -4.18% |
| Cc1ccc(Sc2ncnc(N)c2[N+](=O)[O-])cc1 | 11% |
| COc1cccc(NC(=O)N2CCCC2C(=O)NC23CC4CC(CC(C4)C2)C3)c1 (stereo not drawn) | 9.5% |
| CC1(C)C(=O)OC(c2cccc([N+](=O)[O-])c2)C2(CCCCC2)C1=O (stereo not drawn) | 6.37% |
| CS/C(N)=N/C(=S)Nc1cccc(Cl)c1 | -0.719% |
| O=C(NCc1ccco1)/C(=C/C=C/c1ccccc1)NC(=O)c1ccco1 | -36.4% |
| Cn1cnnc1SCC(=O)NNC(=O)c1ccc(Cl)cc1 | 12.6% |

| SMILES | hERG current change (%, negative = inhibition) at 10uM |
| --- | --- |
| CN1C2CCC1CC(NC(=O)c1cc(S(=O)(=O)N(C)C)c(Cl)cc1Cl)C2 (stereo not drawn) | -7.53% |
| O=C(CC(C(=O)O)c1ccc(Cl)cc1)c1ccc(Br)cc1 (stereo not drawn) | 9.1% |
| Cc1cc(C)c2cc(C#N)c(N3CCCN(C(=O)c4cnccn4)CC3)nc2c1 | -4.24% |
| CC(NC(=O)COc1cccc(Br)c1)C(=O)O (stereo not drawn) | 1.61% |
| CN1C(=O)NC(=O)C2(Cc3ccccc3N3CCOCC32)C1=O (stereo not drawn) | 22.3% |
| O=C1/C(=C/c2ccccn2)SC(=S)N1c1ccc(O)cc1 | 3.54% |
| COC(=O)C1=C(N)N(c2ccc(F)cc2)C2=C(C(=O)CCC2)C1c1ccc2c(c1)OCO2 (stereo not drawn) | -5.13% |
| CCCn1c(SCC(N)=O)nc2c(c1=O)C1(CCCC1)Cc1ccccc1-2 | -16.3% |
| COc1ccc(CC(=O)Nc2c(C(=O)N3CCN(c4ccccc4OC)CC3)oc3ccccc23)cc1OC | -24.4% |
| O=C(CSc1n[nH]c(=O)[nH]c1=O)Nc1cccc(S(=O)(=O)N2CCOCC2)c1 | 32.6% |
| COc1ccc(NC(=O)c2cc(C)n(Cc3cccs3)c2C)cc1 | 10.1% |
| Cc1ccc(C)c2c1cc(C)c1nnc(SCc3ccccn3)n12 | 5.05% |
| O=S(=O)(c1cccc(F)c1)N1CCN(C(=S)NCc2ccccc2)CC1 | -0.89% |
| COc1cc(NC2c3ncccc3C(=O)N2Cc2ccco2)cc(OC)c1OC (stereo not drawn) | 4.45% |
| CC(C)Cn1c(CN2C(=O)c3ccccc3C2=O)nc2ccccc2c1=O | 16.7% |
| O=C(OC(C(=O)NCc1ccccc1)c1ccccc1)c1ccco1 (stereo not drawn) | 2.93% |
| COc1ccc(C(=O)NC2CCN(S(=O)(=O)c3ccccc3F)CC2)cc1 | 18.1% |
| CC(=O)Nc1nonc1-c1nc2ccccc2n1CCC(C)C | -11% |
| CN(C)C(CNC(=O)CCS(=O)(=O)c1ccccc1)c1ccccc1 (stereo not drawn) | 17.6% |
| O=C(CC(NC(=O)c1ccccc1)c1ccccc1)Nc1ccc(F)c(F)c1 (stereo not drawn) | 25.8% |
| Cc1cc(C)n(CC(=O)O)c(=O)c1[N+](=O)[O-] | 6% |
| COc1ccccc1Cn1cccc1C=O | 15.7% |
| CC(Oc1cccc(Cl)c1)C(=O)N1CCCN(C)CC1 (stereo not drawn) | -2.56% |

| SMILES | hERG current change (%, negative = inhibition) at 10uM |
| --- | --- |
| COc1ccc(NC(=O)CN2CCc3ccccc3C2)c(OC)c1 | -6.9% |
| Cc1ccc(CNS(=O)(=O)NCc2ccccc2)cc1 | 12.4% |
| O=C(CSc1ccccc1C(=O)NCc1ccccc1)NC12CC3CC(CC(C3)C1)C2 | -15.1% |
| O=C(CN1CCOCC1)Nc1cccc([N+](=O)[O-])c1 | 7.21% |
| COc1ccc(-c2nnn(CC(=O)N(Cc3ccccc3Cl)C(C(=O)NCC3CCCO3)c3ccco3)n2)cc1 (stereo not drawn) | -2.07% |
| COCCCNc1nc2c(-c3ccc(C)cc3)nnn2c2ccccc12 | 12.9% |
| CC(C)CN(C(=O)c1ccc(=O)n(C)n1)c1nc2ccccc2s1 | -6.96% |
| COC(=O)CC(=O)CSc1nc2c(cc1C#N)CCCCC2 | 1.95% |
| CN1CCc2c(sc(NC(=O)c3ccc(S(=O)(=O)N4CCc5ccccc54)cc3)c2C(N)=O)C1.Cl | 7.03% |
| COc1ccc(NS(=O)(=O)c2ccc(OC)c(N(C)S(=O)(=O)c3ccc(Cl)cc3)c2)cc1 | -16.9% |
| O=C(O)CCC(NC(=O)c1cncc(O)c1)C(=O)O (stereo not drawn) | -4.94% |
| COc1ccc2c(c1OC)C(=O)N(c1ccccc1)C2=O | 10.4% |
| COc1ccc(-c2nnc3cccc(Cl)n23)c(OC)c1 | 17.7% |
| N#CCN1CCCC(C(N)=O)C1 (stereo not drawn) | 0.891% |
| CCOCCCNCc1ccc(OCc2ccccc2C)c(OC)c1.Cl | -24.4% |
| COCCn1c(SCC(=O)NCC2CCCO2)nc2c(c1=O)SCC2 (stereo not drawn) | 15.6% |
| O=C(NCCS(=O)(=O)N1CCN(c2ccccc2F)CC1)c1ccc(Br)cc1 | 4.45% |
| CN1CCN(C(=O)C2CCN(c3ncnc4c3nc3n4CCCCC3)CC2)CC1 | 17.7% |
| CCOC(=O)CSc1ccc(S(=O)(=O)N(C)C2CCCCC2)cc1[N+](=O)[O-] | 5.43% |
| CC(C(=O)N1CCN(C(=O)c2ccco2)CC1)N1C(=O)NC2(CCCCC2C)C1=O (stereo not drawn) | 6.81% |
| CCCCC(CC)C(=O)Nc1cc([N+](=O)[O-])ccc1F (stereo not drawn) | -15.8% |
